# Assay results: PubChem BioAssay (EPA / NIEHS)
# For some of these results: Shown are results outside the selection of hits, which stands elsewhere. Records with an inconclusive call do not appear. The list shows a part of the results, in another mix than the full data. Activity calls are given as the source filed them. Rule for the calls, unless noted: active = hit-call score of the fitted dose curve at least 0.9, where 1 is the maximum; inactive = score below 0.9.
# Tests used:
# [1] = read-out: Matrix Metallopeptidase 1 (MMP1), MMP1 (gene 4312); test: BSK_BE3C_MMP1: BioMAP Diversity Plus: BE3C Assay for Matrix Metallopeptidase 1 (MMP1) Biomarker Activity (AID 2283024); conditions: actives raise or lower the signal; primary human bronchial epithelial cells
# Outline: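 Human bronchial epithelial cells (BE3C system) exposed to compound for 24 h; MMP1 then quantified by ELISA. Activity was fitted in both directions relative to DMSO.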
# [2] = read-out: Interferon-gamma inducible Protein 10 (IP10), CXCL10 (gene 3627); test: BSK_KF3CT_IP10: BioMAP Diversity Plus: KF3CT Assay for Interferon-gamma inducible Protein 10 (IP10) Biomarker Activity (AID 2283068); conditions: actives raise or lower the signal; primary human keratinocytes with fibroblasts
# Outline: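 In a primary skin co-culture of keratinocytes and fibroblasts, IP-10 is quantified by ELISA at 24 h after dosing. SRB staining of parallel wells monitors overt toxicity. Curves are fitted both directions against DMSO.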
# [3] = CEETOX_H295R_OHPROG: CeeTox H295R High-throughput Steroidogenesis Assay for OH-Progesterone (OHPROG) (AID 2283435); conditions: actives raise or lower the signal;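 for AC50: human adrenal H295R cells primed 48 h with 10 µM forskolin; 17alpha-hydroxyprogesterone secreted into medium measured by HPLC-MS/MS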
# [4] = read-out: Urokinase-type plasminogen activator receptor (uPAR), PLAUR (gene 5329); test: BSK_CASM3C_uPAR: BioMAP Diversity Plus: CASM3C Assay for Urokinase-type plasminogen activator receptor (uPAR) Biomarker Activity (AID 2283054); conditions: actives raise or lower the signal; primary human coronary artery smooth muscle cells;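 note: cell-surface uPAR protein level quantified by ELISA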
# [5] = CEETOX_H295R_MTT_cell_viability: Viability Assessment in the CeeTox HT-H295R MTT Assay (AID 2283718)
# [6] = system: SRY-box transcription factor 17 (SOX17) Protein Expression, Deisenroth Lab, SOX17 (gene 64321); test: CCTE_Deisenroth_DEVTOX-GLR_Pluri_SOX17: CCTE's DevTox GLR-Pluri Assay Evaluation of SRY-box transcription factor 17 (SOX17) Protein Expression, Deisenroth Lab (AID 2284427; active = hit-call score of the fitted dose curve at least 0.9, where 1 is the maximum)
# Outline: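 RUES2-GLR human pluripotent cells were seeded 24 h, then differentiated 48 h in defined media with two chemical exposures 24 h apart (10-point series, 1 nM - 200 uM). Fixed, nuclear-stained cells were imaged; %SOX17+ cells minus 0.2% DMSO control reported.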
# [7] = target: human Vitamin D Receptor (VDR), VDR (gene 7421) (UniProt P11473); test: ATG_VDR_TRANS: Attagene TRANS-FACTORIAL HepG2 Assay for human Vitamin D Receptor (VDR) (AID 2283022; active = hit-call score of the fitted dose curve at least 0.9, where 1 is the maximum)
# Chain of UniProt P11473 (P11473 whole entry, looked up, the tested form may be a part): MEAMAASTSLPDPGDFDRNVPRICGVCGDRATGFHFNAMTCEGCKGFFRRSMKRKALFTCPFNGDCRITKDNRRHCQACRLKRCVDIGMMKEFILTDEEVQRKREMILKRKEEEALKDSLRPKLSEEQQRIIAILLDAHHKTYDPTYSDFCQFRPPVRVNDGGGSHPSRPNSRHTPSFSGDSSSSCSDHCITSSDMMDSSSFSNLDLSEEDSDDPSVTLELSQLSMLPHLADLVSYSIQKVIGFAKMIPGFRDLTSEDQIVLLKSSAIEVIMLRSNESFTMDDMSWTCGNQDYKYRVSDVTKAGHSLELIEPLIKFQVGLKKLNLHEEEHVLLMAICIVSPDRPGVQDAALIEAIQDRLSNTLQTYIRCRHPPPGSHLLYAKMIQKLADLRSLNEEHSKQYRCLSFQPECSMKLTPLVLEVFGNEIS
# Outline: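 HepG2 cells were transiently transfected with multiple GAL4-UAS reporter units, so signal reflects exogenous chimeric receptor-Gal4 activity. After 24 h compound exposure, reporter mRNA was measured by RT-PCR, fluorescent labelling and capillary electrophoresis, fitted for gain of signal versus DMSO.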
# [8] = read-out: Monocyte Chemoattractant Protein-1 (MCP1), CCL2 (gene 6347); test: BSK_4H_MCP1: BioMAP Diversity Plus: 4H Assay for Monocyte Chemoattractant Protein-1 (MCP1) Biomarker Activity (AID 2283018); conditions: actives raise or lower the signal; primary human endothelial cells (HUVEC)
# Outline: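 ELISA read-out of MCP-1 from human vascular endothelial primary cells taken at 24 hours after compound exposure. Activity was fitted in both directions relative to DMSO, which served as negative control.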
# [9] = BSK_3C_Vis: BioMAP Diversity Plus: 3C Assay for Morphology Visualization (AID 2283025); conditions: primary human endothelial cells (HUVEC);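 note: light microscopy image of cell morphology used as background control; fitted both ways so gain or loss versus DMSO counts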
# Outline: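 Chemicals were added to primary human umbilical vein endothelium, cells were incubated 24 h, and morphology was then visualized by light microscopy. Gain or loss of signal was fitted bidirectionally relative to DMSO.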
# [10] = read-out: urokinase plasminogen activator (uPA), PLAU (gene 5328); test: BSK_BE3C_uPA: BioMAP Diversity Plus: BE3C Assay for urokinase plasminogen activator (uPA) Biomarker Activity (AID 2283038); conditions: actives raise or lower the signal; primary human bronchial epithelial cells
# Outline: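 Human primary bronchial epithelial cells were exposed to chemical for 24 h, then uPA levels were measured by ELISA. Responses were fitted bidirectionally against DMSO as negative control and baseline. Parallel SRB staining of total protein gauged overt cytotoxicity.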
# [11] = read-out: Monocyte Chemoattractant Protein-1 (MCP1), CCL2 (gene 6347); test: BSK_LPS_MCP1: BioMAP Diversity Plus: LPS Assay for Monocyte Chemoattractant Protein-1 (MCP1) Biomarker Activity (AID 2283081); conditions: actives raise or lower the signal; primary human HUVEC with PBMC;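 note: co-culture stimulated with LPS; secreted MCP-1 protein quantified by ELISA in culture supernatant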
# Outline: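 HUVEC plus PBMC co-culture (human primary cells, LPS system) exposed to test chemical for 24 h; MCP-1 measured by ELISA. Bidirectional curve fitting against DMSO baseline; parallel SRB total-protein staining flags overt cytotoxicity.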
# [12] = read-out: BCL2L11 (gene 10018); test: LTEA_HepaRG_BCL2L11: Life Technologies and Expression Analysis (LTEA) Assay for Bcl-2 (BCL2L11) gene using HepaRG (AID 2283473); conditions: actives raise or lower the signal; mRNA level, 48 h
# Outline: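 Differentiated human HepaRG cells in serum-free induction medium were exposed in duplicate for 48 h to eight concentrations (top 100 uM, half-log steps, 0.5% DMSO). BCL2L11 mRNA was quantified by TaqMan qRT-PCR, normalized to ACTB/GAPDH/POLR2A, bidirectional fit versus DMSO.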
# [13] = Tanguay_ZF_120hpf_CIRC_legacy: (Legacy) Oregon State University Tanguay Lab 120 Hour Post-fertilization zebrafish Assay for Circulatory Malformation (AID 2283651; active = hit-call score of the fitted dose curve at least 0.9, where 1 is the maximum)
# Outline: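 Read-out: presence or absence of circulatory malformation at 120 hpf, scored by brightfield microscopy, fitted in the gain-of-signal direction against DMSO baseline. Wild-type 5D larvae were exposed from 6 hpf after enzymatic chorion removal.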
# [14] = read-out: sulfotransferase (SULT2A), SULT2A1 (gene 6822); test: CLD_SULT2A_6hr: CellzDirect (CLD) Gene Expression Assay for sulfotransferase (SULT2A) at 6 hours (AID 2283669; active = hit-call score of the fitted dose curve at least 0.9, where 1 is the maximum;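 note: hits raise transcript level above the DMSO vehicle baseline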)
# Outline: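 Primary human hepatocytes from two donor preparations were dosed daily with chemicals or 0.2% DMSO and harvested at 6 h. Transcript induction read by qNPA chemiluminescence, fitted for gain of signal relative to DMSO; morphology-based cytotoxicity annotated.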
# [15] = read-out: Glyceraldehyde-3-phosphate dehydrogenase (Homo sapiens) (UniProt P04406); test: CLD_GAPDH_6hr: CellzDirect (CLD) Gene Expression Assay for Baseline Control (Glyceraldehyde 3-phosphate dehydrogenase) at 6 hours (AID 2283681; active = hit-call score of the fitted dose curve at least 0.9, where 1 is the maximum;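 note: active means increased signal relative to DMSO vehicle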)
# Chain of UniProt P04406 (P04406 whole entry, looked up): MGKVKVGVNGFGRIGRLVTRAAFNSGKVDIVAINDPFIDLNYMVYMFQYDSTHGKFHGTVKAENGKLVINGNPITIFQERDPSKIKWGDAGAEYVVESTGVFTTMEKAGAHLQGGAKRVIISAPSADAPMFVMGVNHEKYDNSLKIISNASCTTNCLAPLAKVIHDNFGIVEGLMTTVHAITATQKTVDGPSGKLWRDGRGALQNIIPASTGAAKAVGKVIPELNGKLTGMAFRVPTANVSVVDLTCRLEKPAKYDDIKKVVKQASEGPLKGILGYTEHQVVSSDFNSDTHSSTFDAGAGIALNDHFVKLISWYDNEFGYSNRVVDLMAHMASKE
# Outline: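 Primary human hepatocytes from two donor preparations, dosed at multiple concentrations with 0.2% DMSO vehicle; GAPDH mRNA measured 6 h after dosing by chemiluminescent quantitative nuclease protection assay (qNPA) on denatured lysates. Serves as background control; cytotoxicity annotated by morphology.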
# [16] = read-out: Cytochrome P450 (CYP2B6), CYP2B6 (gene 1555); test: LTEA_HepaRG_CYP2B6: Life Technologies and Expression Analysis (LTEA) Assay for Cytochrome P450 (CYP2B6) using HepaRG (AID 2283481); conditions: actives raise or lower the signal; mRNA level, 48 h
# Outline: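 Differentiated HepaRG cells, serum-free induction medium, exposed 48 h in duplicate to 8-point half-log concentrations from 100 uM in 0.5% DMSO. CYP2B6 mRNA by qRT-PCR, normalized to ACTB, GAPDH, POLR2A; bidirectional fit versus DMSO.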
# [17] = read-out: Nuclear factor NF-kappa-B p105 subunit (Homo sapiens) (UniProt P19838); test: LTEA_HepaRG_NFKB1: Life Technologies and Expression Analysis (LTEA) Assay for Nuclear Factor Kappa B Subunit 1 (NFKB1) using HepaRG (AID 2283521); conditions: actives raise or lower the signal; mRNA level, 48 h;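 note: TaqMan qRT-PCR transcript normalised to ACTB GAPDH and POLR2A housekeeping genes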
# Chain of UniProt P19838 (P19838 whole entry, looked up): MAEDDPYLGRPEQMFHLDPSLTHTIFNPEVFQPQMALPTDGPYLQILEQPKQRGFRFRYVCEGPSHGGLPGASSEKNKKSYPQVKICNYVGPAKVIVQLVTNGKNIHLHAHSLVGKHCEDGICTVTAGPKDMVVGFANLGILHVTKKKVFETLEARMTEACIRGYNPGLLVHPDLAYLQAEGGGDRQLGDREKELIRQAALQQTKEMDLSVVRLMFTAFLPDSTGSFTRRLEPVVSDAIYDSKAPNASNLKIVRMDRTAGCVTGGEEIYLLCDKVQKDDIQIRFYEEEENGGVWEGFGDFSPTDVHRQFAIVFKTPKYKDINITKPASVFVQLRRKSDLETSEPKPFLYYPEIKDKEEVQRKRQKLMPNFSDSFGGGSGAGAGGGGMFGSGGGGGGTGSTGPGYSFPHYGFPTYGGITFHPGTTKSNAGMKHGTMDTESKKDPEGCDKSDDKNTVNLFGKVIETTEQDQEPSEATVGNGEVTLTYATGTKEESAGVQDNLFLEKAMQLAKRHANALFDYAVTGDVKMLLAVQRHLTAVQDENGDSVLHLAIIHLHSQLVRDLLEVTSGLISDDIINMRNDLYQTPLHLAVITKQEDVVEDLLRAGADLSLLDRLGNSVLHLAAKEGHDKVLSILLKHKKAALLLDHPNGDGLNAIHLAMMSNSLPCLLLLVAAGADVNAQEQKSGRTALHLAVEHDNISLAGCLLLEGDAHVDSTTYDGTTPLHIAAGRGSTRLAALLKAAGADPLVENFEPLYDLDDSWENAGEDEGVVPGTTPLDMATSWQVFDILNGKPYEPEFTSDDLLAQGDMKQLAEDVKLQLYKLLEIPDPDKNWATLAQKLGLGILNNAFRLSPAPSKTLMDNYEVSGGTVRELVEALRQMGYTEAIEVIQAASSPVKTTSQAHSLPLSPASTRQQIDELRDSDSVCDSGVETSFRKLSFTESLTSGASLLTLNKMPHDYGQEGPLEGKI
# Outline: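 Differentiated human HepaRG cells in serum-free induction medium with 0.5% DMSO were exposed for 48 h to eight half-log concentrations, top 100 uM, in duplicate. NFKB1 mRNA measured by Fluidigm TaqMan qRT-PCR, normalised to ACTB, GAPDH and POLR2A; bidirectional fit versus DMSO.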
# [18] = Tanguay_ZF_120hpf_TR_legacy: (Legacy) Oregon State University Tanguay Lab 120 Hour Post-fertilization zebrafish Assay for Touch Response (AID 2283667; active = hit-call score of the fitted dose curve at least 0.9, where 1 is the maximum)
# [19] = target: human Thyroid Receptor alpha (THRa1), THRA (gene 7067) (UniProt P10827); test: ATG_THRa1_TRANS: Attagene TRANS-FACTORIAL HepG2 Assay for human Thyroid Receptor alpha (THRa1) (AID 2283014; active = hit-call score of the fitted dose curve at least 0.9, where 1 is the maximum)
# Chain of UniProt P10827 (P10827 whole entry, looked up, the tested form may be a part): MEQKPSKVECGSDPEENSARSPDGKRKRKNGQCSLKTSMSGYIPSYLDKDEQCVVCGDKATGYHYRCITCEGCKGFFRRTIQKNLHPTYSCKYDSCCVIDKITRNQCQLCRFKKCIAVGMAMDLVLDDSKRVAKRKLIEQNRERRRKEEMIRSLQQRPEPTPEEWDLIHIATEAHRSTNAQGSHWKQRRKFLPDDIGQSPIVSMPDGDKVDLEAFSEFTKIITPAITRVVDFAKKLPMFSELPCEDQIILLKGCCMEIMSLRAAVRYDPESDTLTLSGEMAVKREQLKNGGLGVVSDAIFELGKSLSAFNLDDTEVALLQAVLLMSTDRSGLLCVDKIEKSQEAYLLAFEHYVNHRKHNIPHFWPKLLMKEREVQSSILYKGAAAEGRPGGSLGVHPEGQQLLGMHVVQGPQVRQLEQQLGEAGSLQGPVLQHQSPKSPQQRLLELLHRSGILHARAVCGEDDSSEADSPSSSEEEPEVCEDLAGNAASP
# Outline: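 HepG2 cells transiently transfected with multiplexed GAL4-UAS reporter units for exogenous chimeric THRa1-Gal4; reporter mRNA measured 24 h after dosing by RT-PCR, 6-FAM labelling, HpaI digestion and capillary electrophoresis. Gain-of-signal fitted versus DMSO baseline.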
# [20] = read-out: Interleukin-6 (IL6), IL6 (gene 3569); test: BSK_CASM3C_IL6: BioMAP Diversity Plus: CASM3C Assay for Interleukin-6 (IL6) Biomarker Activity for (AID 2283040); conditions: actives raise or lower the signal; primary human coronary artery smooth muscle cells
# [21] = read-out: Urokinase-type plasminogen activator receptor (uPAR), PLAUR (gene 5329); test: BSK_4H_uPAR: BioMAP Diversity Plus: 4H Assay for Urokinase-type plasminogen activator receptor (uPAR) Biomarker Activity (AID 2283030); conditions: actives raise or lower the signal; primary human endothelial cells (HUVEC)
# Outline: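 Primary human umbilical vein endothelial cells were exposed to chemical for 24 h before cell-surface uPAR was quantified by ELISA. Activity was fitted bidirectionally against the DMSO negative control baseline.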
smiles,measurement,setting,value
CC1COc2ccccc2N1C(=O)C(Cl)Cl (stereo not given),outcome,[1],inactive
same,outcome,[2],inactive
same,AC50,[3],active: 10.5 µM
O=C1NC(=O)C(c2ccccc2)(c2ccccc2)N1,outcome,[1],inactive
same,outcome,[4],inactive
same,outcome,[3],inactive
same,outcome,[5],inactive
same,AC50,[6],active: 158 µM
C=C(C)C(=O)OCC1CCCO1 (stereo not given),outcome,[7],inactive
O=C(Nc1ccc([N+](=O)[O-])cc1Cl)c1cc(Cl)ccc1O,AC50,[8],active: 0.154 µM
same,AC50,[9],active: 1.23 µM
same,AC50,[10],active: 2.62 µM
same,AC50,[11],active: 0.504 µM
same,outcome,[12],inactive
same,outcome,[13],inactive
same,outcome,[14],inactive
same,outcome,[15],inactive
O=P(OC(CCl)CCl)(OC(CCl)CCl)OC(CCl)CCl,outcome,[7],inactive
same,AC50,[16],active: 86.5 µM
same,outcome,[17],inactive
same,AC50,[18],active: 32.8 µM
O=C(C(=O)c1ccccc1)c1ccccc1,outcome,[7],inactive
Cc1cc(O)cc(C)c1Cl,outcome,[19],inactive
COc1ccc2sc(C(=O)Nc3nnn[nH]3)c(OC(C)C)c2c1,outcome,[20],inactive
O=c1[nH]cc(F)c(=O)[nH]1,AC50,[21],active: 11.3 µM
